According to ChEMBL document CHEMBL4888484, “Replenishing the malaria drug discovery pipeline: Screening and hit evaluation of the MMV Hit Generation Library 1 (HGL1) against asexual blood stage Plasmodium falciparum ,using a nano luciferase reporter read-out” (2022):
The whole screen tested about 150,000 compounds, of which about 540 (0.36%) showed an effect of 50% or more. The list shows a part of the results.

tested on: Plasmodium falciparum; experiment: Primary screen in NF54 nanoGlo assay, in single point, at 2uM, 72h; a lower Z score goes with more inhibition; assay type: functional, Erythrocyte; conditions: timepoint 72 hour

SMILES | % Inhibition [%] | Z score
C[C@@H](NC(=O)N1CC(F)C1)c1ccccc1 | 4 | -0.51
Cc1cccc(Cl)c1NC(=O)N1CCC(n2cc([C@H](C)O)nn2)CC1 | -14 | 1.81
O=C(NCCn1c(=O)[nH]c2ccsc2c1=O)OC1CCCC1 | -5 | 1.02
Cc1nc(O)c(Cl)c(N2CCC(CCN3CCCC3)CC2)n1 | -20 | 2.28
CCCc1[nH]nc(-c2ccc(C(F)(F)F)cc2)c1NC(=O)C1CCCC1 | 4 | -0.75
CNC(=O)[C@H](Cc1c[nH]cn1)NS(=O)(=O)CCC1CCCCC1 | 3 | -0.61
O=C(CN1C(=O)COc2ccc(Cl)cc21)N1CCCc2ccccc21 | -3 | 0.39
OCc1cccc(-n2ccnc2-c2ccc3c(c2)OCCO3)c1 | -3 | 0.31
O=C1CC[C@H](C(=O)N2CCCCO2)CN1CCc1ccccn1 | 2 | -0.26
CC(C)(C)c1ccc(=O)n(CN2CCN(C(=O)C3CCCC3)CC2)n1 | 2 | -0.15
Cc1nc(O)cc(Cn2cnc(-c3ccccc3)c2[C@H]2CCOC2)n1 | -10 | 1.37
O=C(CCc1ccc2c(c1)OCCO2)N1CCCC1 | -3 | 0.45
Cc1ccc(C(=O)NCCC(C)C)cc1-n1nnc2cccnc21 | -18 | 3.46
CC(C)c1ccc(C(=O)N[C@@H]2CCCC[C@H]2O)c(O)c1 | -7 | 1.06
NC(=O)c1c(N)sc2c1CCN(Cc1ccccc1)C2 | 2 | -0.33
CO[C@@H](Cc1ccccc1)CS(=O)(=O)N(C)c1ccn(C)n1 | -11 | 1.19
CN1CCC(N(Cc2ccco2)C(=O)c2ccc(O)cc2F)CC1 | -11 | 1.13
COc1ccc(-c2c3c(=O)[nH]n(C(C)C)c3nc3[nH]c(=O)n(C)c23)cc1OC | -38 | 4.45
Cc1cc(C(=O)N(Cc2ccccc2)Cc2ccccc2)n(C)n1 | -6 | 0.98
CC(C)N(CC(=O)N1CCNC1=O)Cc1cc2c(s1)CCC2 | 5 | -0.71
Cc1ccc(NC(=O)N2Cc3cncnc3C2)cc1 | -6 | 1.08
COC[C@@H]1CN(c2cnccn2)C[C@H]1C(=O)NCc1ccco1 | -13 | 1.98

SMILES | % Inhibition [%] | Z score
Cc1ccc(CN(C(=O)C(F)(F)F)c2cnccn2)cc1 | -4 | 0.42
C[C@H](NC(=N)N)c1cccc(Br)c1 | -8 | 1.22
COc1ccccc1N1CCN(C2CCN(C[C@H]3CCCCO3)CC2)CC1 | 4 | -0.5
c1cc(C2CCCC2)nc(NCCc2nccs2)n1 | -3 | 0.52
COc1ccc(C2=NC3=S(N2c2ccccc2)N(C(C)=O)C(C(Cl)(Cl)Cl)N3c2ccccc2)cc1 (stereo not given) | 37 | -1.24
CNC(=O)[C@H](C)NC(=O)c1ccc(N2CCC2)nc1 | -7 | 1.19
O=C(NCc1noc(-c2ccccc2)n1)Nc1cccnc1 | -9 | 1.2
COc1ccc2cc1OCC(=O)N[C@@H](C)C(=O)N(C)CCCCN(c1ncnc3sccc13)CCCNC(=O)CC2 | 9 | -1.22
O=C1C[C@H](c2cc(F)cc(F)c2)c2cnn(-c3cccc(Cl)c3)c2N1 | 11 | -1.43
COc1ccc(NC(=O)Nc2c(-c3cccnc3)[nH]c3ccc(F)cc23)cc1 | 3 | -0.49
Cc1ccc(C)c(OCC(=O)N2CCC(CCN3CCCC3=O)CC2)c1C | 4 | -0.55
COc1cc(N[C@H]2CCOC[C@@H]2OCCN(C)C)nc(OC)n1 | -9 | 1.25
c1ccc(-c2cnn([C@@H]3CCCCO3)n2)nc1 | -3 | 0.36
COc1ccc([C@@H](O)Cn2cnc(C(=O)Nc3ccc(F)cc3)n2)cc1 | -6 | 0.71
Cc1noc2ncn(CC(=O)Nc3nccs3)c(=O)c12 | 4 | -0.7
Cc1c(Cl)cccc1S(=O)(=O)N1CC[C@H](c2ccc3c(c2)CCO3)C1 | -17 | 2.01
Cn1nncc1CNc1c(F)cccc1F | -4 | 0.78
Cn1cc(NC(=O)N[C@@H]2CCC[C@@H]2n2ccnc2)c(C2CC2)n1 | 4 | -0.54
CC(C)c1nc(N2CCO[C@H](c3ccc(F)cc3)C2)no1 | -9 | 1.18
O=C(Nc1ccc2nc(N3CCCC3)sc2c1)c1ccc2c(c1)OCCO2 | -5 | 0.52
COc1cc2c(cc1-c1cn([C@H]3CS(=O)(=O)C[C@@H]3O)nn1)CCC2 | 0 | 0.05
O=C(C[C@H]1CCCN1c1nccn2cnnc12)c1ccc(F)cc1 | -19 | 2.51

SMILES | % Inhibition [%] | Z score
Cc1ccc(-c2noc(Cn3cnc4ccccc43)n2)cc1 | -12 | 1.86
COc1ccc2ncc(C(=O)N(CCS(C)(=O)=O)C3CC3)n2n1 | -5 | 0.84
CC(C)N1CCCN(Cc2nccs2)CC1 | -6 | 0.94
Cc1nc2c([nH]1)CN(Cc1cc3c(cc1Cl)OCO3)CC2 | -22 | 2.18
COc1cccc(-c2ccc(N3CCN(C(=O)CN(CCN4CCOCC4)C(=O)C(C)C)CC3)nn2)c1 | -9 | 1.34
CCN1C[C@H](CN(C)S(=O)(=O)c2c(Cl)cccc2Cl)Oc2ccccc21 | 1 | -0.27
O[C@@]1(CNc2cc(-c3ccccc3F)nc3ccnn23)CCCNC1 | 7 | -1.32
Cc1cccc(Cn2c(=O)n(CCNC(=O)CC(C)(C)C)c3ncccc32)c1 | -15 | 1.73
COc1ccc(NC(=O)Cn2nc3c4sc(N5CCCCCC5)nc4ncn3c2=O)cc1 | -10 | 1.15
Cn1nccc1C(=O)Nc1cc(S(=O)(=O)N2CCCC2)ccn1 | 2 | -0.39
Cc1cc(CNC(=O)c2coc(-c3ccccc3)n2)ccc1S(N)(=O)=O | 4 | -0.53
c1ccc2c(c1)CN(c1ccnc(C3CC3)n1)CCO2 | -15 | 1.73
CCCN1C[C@@H](NCc2nccn2CCOC)CC1=O | -17 | 1.62
CC1CCN(C(=O)NCC(C)(C)S(C)(=O)=O)CC(C)C1 (stereo not given) | 12 | -1.31
CCc1c(-c2nc([C@H]3CCOC3)no2)[nH]c2ccccc12 | 13 | -2.17
Cc1ccc(C(=O)OC[C@H]2CN(C)CCO2)c(F)c1 | -5 | 0.86
COc1cccc2c1CCC[C@H](NC(=O)NCc1cccnc1C)C2 | -4 | 0.68
Cc1ccccc1NC(=O)Cn1nc(C2CC2)cc1C(=O)N1CCCC1 | -6 | 0.93
Cc1noc2ncnc(N3CCC[C@@](CO)(CCOc4ccccc4)C3)c12 | -6 | 1.07
C=C(C)CN(CC)C(=O)Nc1cc(C)ccn1 | 2 | -0.28
C#CCCC1(CCC(=O)N2CC[C@H](NC(C)=O)C2)N=N1 | -15 | 1.81
Cn1nc(-c2cccnc2)c2[nH]c(-c3ccc4c(c3)CC(C)(C)O4)nc21 | -6 | 0.65

SMILES | % Inhibition [%] | Z score
Cc1ccc(C)c(NC(=O)Cn2ccn3nc4c(c3c2=O)CCCC4)c1 | -14 | 1.33
O=C(c1ccn(CC(F)(F)F)n1)N1CC=C[C@@H]1CO | -4 | 0.46
Cc1ccc(C(N)=O)c(N2Cc3cnc(CC(C)C)nc3C2)n1 | 22 | -2.8
Cc1ccc(CS(=O)(=O)NCc2cc[nH]n2)cc1F | -14 | 2.72
CCN1C(=O)CN(CN2CCN(c3ccccc3F)CC2)C1=O | -11 | 1.14
CC(=O)c1c[nH]c(C(=O)Nc2ccc(N3CC(C)OC(C)C3)cc2)c1 (stereo not given) | -1 | 0.23
Cc1cccc(O[C@@H](C)C(=O)Nc2nc(-c3ccc4c(c3)OCCO4)cs2)c1 | 1 | -0.2
CC1CN(C(=O)c2cnc(C3CC3)s2)CC(C)N1C (stereo not given) | -6 | 0.94
O=C(Nc1ccc(Nc2ncccn2)cc1)[C@@H]1Cc2ccccc2O1 | -6 | 1.13
CCc1ccc(CNC(=O)c2nnn(-c3ccc(F)c(C)c3)c2-c2ccccn2)cc1 | 5 | -1
Cn1nnc2c1CC(C(=O)NC1COc3ccc(F)cc3C1)CC2 (stereo not given) | 1 | -0.11
COc1cccc(-n2cnc3c2[C@@H](c2cc(OC)c(O)c(OC)c2)CC(=O)N3)c1 | -1 | 0.12
COc1cccc(N2CCN(c3nccn4c(C)nnc34)CC2)c1 | 3 | -0.48
FC(F)(F)c1ccnc(N2CC(Cn3cccn3)C2)n1 | -11 | 1.27
CCn1ccnc1CN(C)C(=O)C1(N2C[C@@H](C)O[C@@H](C)C2)Cc2ccccc2C1 | -5 | 0.53
CCCc1[nH]nc(CCc2ccc(OC)cc2)c1NC(=O)c1cccc(F)c1 | -15 | 1.87
CC(C)(C)[C@H](CCO)NC(=O)c1ccc(F)cc1Cl | -20 | 2.29
Cc1ccc([C@H]2C[C@@H](C(F)(F)F)n3ncc(C(=O)NCC4CCCO4)c3N2)cc1 (stereo not given in full) | -7 | 1.17
COc1ccc(S(=O)(=O)N2Cc3cncnc3C2)cc1C | -10 | 1.72
